Here are results for 108 compounds from PubChem BioAssay AID1240 (Sanford-Burnham Center for Chemical Genomics, 2008).

The structures appear in SMILES notation. Screen size: about 50,000 compounds; about 800 (1.6%) showed an effect of 50% or more. The list shows a part of the results.

For the assay, the target named is Bcl-2-like protein 10 (Homo sapiens) (UniProt Q9HD36). As to the kind of experiment: Phenotype converters, Bcl-B/TR3 peptide binding displacement, primary biochemical FP (AID 1240).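 Further: 0% = Bcl-B with tracer peptide and DMSO and 100% = tracer peptide lacking Bcl-B.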 The following applies: GST-Bcl-B / FITC-TR3 peptide fluorescence polarization; stronger effect = higher value; compound at 3.75 mg/L.
UniProt Q9HD36, sequence (Q9HD36 whole entry, looked up): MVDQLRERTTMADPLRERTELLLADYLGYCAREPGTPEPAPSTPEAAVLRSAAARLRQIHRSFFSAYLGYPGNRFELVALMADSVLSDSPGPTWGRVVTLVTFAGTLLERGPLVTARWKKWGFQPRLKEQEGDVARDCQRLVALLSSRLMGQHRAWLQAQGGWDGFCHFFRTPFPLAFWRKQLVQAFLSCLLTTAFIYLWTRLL
For the compound `COc1ccc(CNCCC(c2ccc(OC)cc2)C2CCOC(C)(C)C2)cc1` (stereo not drawn), the displacement is -3.5%.

With `OC(COC1CCCCC1)Cn1c2ccccc2c2ccccc21` (stereo not drawn), the displacement is -9.1%.

For the compound `O=C(c1nn2c(c1Cl)NC(c1cccs1)CC2C(F)(F)F)N(Cc1ccccc1)Cc1ccccc1` (stereo not drawn), the displacement was determined as 3.4%.

Take `COC(=O)c1ccc(CSc2nc3sc(C)c(C)c3c(=O)n2-c2ccccc2)cc1`: the displacement was found to be 9.5%.

For the compound `CC(C)(C)c1ccc(OCCN2CCOCC2)cc1`, the displacement was found to be 4.5%.

`CC(C)NC(=O)c1ccc(CN2CCC(Cc3ccccc3)CC2)cc1`: the displacement was -4.7%.

For `Oc1cccc(/C=N/Nc2nc(N3CCCC3)nc(N3CCCC3)n2)c1`, the displacement came to 5.8%.

On to `O=C(COc1cccc2ccccc12)NCCO`, for which the displacement is 14.5%.

On to `COc1ccc(CCNC2=CC(=O)CC(c3ccccc3)C2)cc1OC` (stereo not drawn), for which the displacement worked out at 1.4%.

As for `COc1ccc(CC(=O)N2CCC(Cc3ccccc3)CC2)cc1OC`, the displacement was 7.4%.

In the case of `COc1cc2nc(-c3ccc(Oc4ccc([N+](=O)[O-])cc4)cc3)oc(=O)c2cc1OC`, the displacement stood at 10.6%.

For `COc1ccc(C(=O)Nc2ccccc2)cc1NC(=O)C(c1ccccc1)c1ccccc1`, the displacement was -1.4%.

Take `COc1ccc(Cl)cc1C(=O)NCc1ccc2c(c1)OCO2`: the displacement is -5.9%.

For `COc1ccc(-c2c(C#N)c(N)c(C#N)c3c2CCCC3)cc1`, the displacement is 4%.

On to `O=C(Nc1ccc2nn(-c3ccc(F)cc3)nc2c1)c1ccc([N+](=O)[O-])cc1`, for which the displacement was found to be 15.8%.

In the case of `C/C=C/COC(=O)C1=C(C)NC(=O)NC1c1ccc(Cl)cc1` (stereo not drawn), the displacement was found to be 1.3%.

Take `COC(=O)c1ccc(C(=O)OC)c(NC(=O)COc2ccccc2Cl)c1`: the displacement is 73.8%.

Consider `O=C(Nc1ccccc1Cl)c1ccc(Br)o1`, for which the displacement was -0.6%.

In the case of `O=C(COc1cccc2ccccc12)NCC1CCCO1` (stereo not drawn), the displacement is 10.9%.

On to `Cc1ccc(C2C(C#N)=C(N)Oc3c2sc2ccccc32)o1` (stereo not drawn), for which the displacement stood at 2.5%.

Consider `COc1ccccc1NC(=O)C1=C(C)NC(=O)NC1c1cccc(Cl)c1` (stereo not drawn), for which the displacement is -9.7%.

Take `CC(=O)Nc1ccc(S(=O)(=O)Nc2ccccc2C(N)=O)cc1`: the displacement is -10%.

For the compound `COc1ccc(C(CC(=O)O)c2ccccc2)cc1` (stereo not drawn), the displacement worked out at 3.5%.

`Cn1nnnc1SCCNS(=O)(=O)c1ccccc1`: the displacement was -9.6%.

For `O=C(C1CN(S(=O)(=O)c2ccccc2)CCN1S(=O)(=O)c1ccccc1)N1CCCCC1` (stereo not drawn), the displacement came out at 4.9%.

Regarding `Cc1ccc(/C=N/N=C(c2ccccc2)c2ccccc2)s1`, the displacement was -3.3%.

As for `COc1ccc(CCNC(=O)c2cc3ccccc3oc2=O)cc1`, the displacement is -7.8%.

With `CCC1CCCCN1CCCCOc1cccc(Cl)c1` (stereo not drawn), the displacement is -5%.

Take `COc1ccc(NC(=O)C2C3CCC4C(CCC32)C4(Cl)Cl)cc1` (stereo not drawn): the displacement is -7.1%.

Regarding `COc1ccc(S(=O)(=O)n2cnc3cc(C)c(C)cc32)cc1`, the displacement was -5.6%.

`CN1/C(=C\C(=O)Nc2ccccc2Br)c2ccccc2CC1(C)C`: the displacement was determined as 9.8%.

Turning to `COC(=O)c1c(C)oc2cc(Br)c(OCc3ccccc3)cc12`, the displacement stood at 8.3%.

Take `O=C(NN1C(=O)S/C(=C\c2ccc(Cl)cc2Cl)C1=S)c1ccccc1O`: the displacement was -0.2%.

For `Cc1ccc(O)c(NC(=O)c2cnn3c(C(F)(F)F)cc(-c4ccco4)nc23)c1`, the displacement is 12.1%.

Consider `CCOc1ccc(C(=O)Nc2ccccc2C(=O)OC)cc1Br`, for which the displacement is 0.9%.

In the case of `COc1cccc(/C=C2/C(=O)NC(=O)N(c3ccc(C(C)C)cc3)C2=O)c1O`, the displacement was -15.1%.

For the compound `C(=N\n1cnnc1)/c1ccc(-c2cccc3ccccc23)o1`, the displacement is -9%.

With `Cc1ccc(NC(=O)O/N=C\c2ccc(F)cc2)cc1`, the displacement is -7.2%.

Consider `CCN(CC)c1ccc(/C=c2\sc3n(c2=O)C(c2ccc(OC)cc2OC)C(C(C)=O)=C(C)N=3)c(OC)c1` (stereo not drawn), for which the displacement was -52.5%.

Consider `COc1ccc(Nc2nc(C(F)(F)F)nc(C)c2C#N)cc1`, for which the displacement was -4.2%.

For `COc1cc(NC(=O)C2CCCC2)c(OC)cc1Cl`, the displacement is -11.6%.

On to `Cc1ccc(OCC(=O)Nc2ccc(C(N)=O)cc2)c(Br)c1`, for which the displacement amounted to 15.1%.

For `CCCCN(CCCC)C(=O)CSc1nc2ccccc2[nH]1`, the displacement was determined as 12.2%.

Consider `COc1cc(C(=O)O)c(-n2c(C)ccc2C)cc1OC`, for which the displacement was 74.7%.

As to `Cc1oc(C(C)(C)C)cc1C(=O)Nc1ccc(CC(=O)O)cc1`, the displacement was -3.8%.

With `Cn1c(CC(O)c2ccccc2)nc2ccccc21` (stereo not drawn), the displacement stood at 12.6%.

For `Cc1c(NC(=O)c2nn3c(c2Br)NC(c2ccccc2)CC3C(F)(F)F)c(=O)n(-c2ccccc2)n1C` (stereo not drawn), the displacement amounted to 9.6%.

On to `COC(=O)c1c(C)oc2ccc(OC(=O)c3ccc(Cl)cc3)cc12`, for which the displacement amounted to 12.7%.

As for `COc1ccc2oc(=O)c(C(=O)O)cc2c1`, the displacement came out at 12.3%.

As for `Cc1ccc(OCC(=O)NCc2ccc3c(c2)OCO3)c(C)c1`, the displacement was -2.3%.

For the compound `Cc1cccc(OCC(=O)Nc2ccc(Cl)c(C(F)(F)F)c2)c1`, the displacement turned out to be 12.3%.

Consider `O=C1OC2C=CC(Br)=CC2=CC1C(=O)N1CCSC1c1ccccc1Cl` (stereo not drawn), for which the displacement amounted to 11.6%.

As to `O=C(CN(c1cccc([N+](=O)[O-])c1)S(=O)(=O)c1ccccc1)NCCSc1ccc(Cl)cc1`, the displacement worked out at 11.6%.

Turning to `C#CCC(CC#C)(C(=O)OC)C(=O)OC`, the displacement was 15.4%.

Consider `N#CCOc1ccccc1/C=C1/Sc2ccccc2C1=O`, for which the displacement was 6.6%.

As to `C(=N\Nc1nnc2c(n1)[nH]c1ccccc12)/c1c[nH]c2ccccc12`, the displacement was found to be 12.9%.

With `COc1ccc(-c2cc(C(=O)Nc3c(Cl)cccc3Cl)c3ccccc3n2)cc1`, the displacement turned out to be 2.5%.

`COc1c(Cl)cc(Cl)cc1/C=c1/sc2nc3ccccc3n2c1=O`: the displacement was determined as 23.1%.

With `CCCCNc1ccc2c3c(cc(=O)n2C)-c2ccccc2C(=O)c13`, the displacement turned out to be 129%.

For `N#Cc1c(N)nc2c(c1-c1ccc(F)cc1)CCCC2`, the displacement is -0.5%.

For the compound `O=C(/C=C/c1ccc([N+](=O)[O-])cc1)N1CCc2ccccc2C1`, the displacement was 0.4%.

As for `COc1cc(/C=C2\C(=O)ON=C2c2ccccc2)cc(OC)c1OC`, the displacement was 0.1%.

Consider `COc1cccc(NC(=O)c2c(-c3ccccc3Cl)noc2C)c1`, for which the displacement was -2.9%.

Consider `COc1cc(/C=C2\C(=O)NC(=O)N(c3cc(C)cc(C)c3)C2=O)cc([N+](=O)[O-])c1O`, for which the displacement came out at 10%.

In the case of `CCOc1ccc(C(=O)Nc2ccc(-c3nc4ccc(C)cc4s3)cc2)cc1`, the displacement came out at 13.3%.

In the case of `COc1ccc(NC(=O)c2cc(Br)ccc2I)cc1Cl`, the displacement came to 11.8%.

Consider `CCc1ccc(-c2c(C)sc(N)c2C(=O)OC)cc1`, for which the displacement was found to be 7.1%.

In the case of `COc1cc(C2/C(=C(\O)c3ccccc3)C(=O)C(=O)N2c2cccc(Cl)c2)ccc1O` (stereo not drawn), the displacement amounted to 2.7%.

Take `Cc1cc(NC(=O)c2ccc(-c3cc(Cl)ccc3Cl)o2)ccc1NC(=O)c1ccco1`: the displacement was -27.8%.

Turning to `CC1(C)Cc2c(sc3[nH]c(=S)[nH]c(=S)c23)CO1`, the displacement was -18.6%.

Consider `O=C(Cc1ccccc1)NC(CCC(=O)OCc1ccccc1)C(=O)NCCO` (stereo not drawn), for which the displacement is -6.1%.

In the case of `CC(C)c1ccc(C(=O)Nc2ccc(Cl)cn2)cc1`, the displacement stood at 16.8%.

Turning to `CCOc1ccc(N2C(=O)c3ccccc3NC2c2cccc([N+](=O)[O-])c2)cc1` (stereo not drawn), the displacement is -1%.

Turning to `COc1ccccc1NC(=O)C(=O)N=Nc1c(O)n(CC(=O)Nc2ccccc2)c2ccccc12`, the displacement came out at 1.1%.

On to `CN1C(=O)C(=Cc2ccc(N3CCOCC3)cc2)C(=O)N(C)C1=O`, for which the displacement is 8.9%.

As to `CCCCc1nnc(NC(=O)CCc2ccccc2)s1`, the displacement was determined as 5.7%.

As to `Cc1cc(C)cc(N2C(=O)NC(=O)/C(=C\c3ccc(F)cc3)C2=O)c1`, the displacement came out at 7.7%.

As for `O=C(N/C(=C/c1cccc([N+](=O)[O-])c1)C(=O)N1CCCC1)c1ccccc1`, the displacement was -1.6%.

For the compound `COc1cccc(NC(=O)C(=O)N/N=C/c2cc(OC)ccc2OC)c1`, the displacement came out at 18.4%.

On to `COC(=O)C1=CNC=C(C(=O)OC)C1c1cccc(C)c1`, for which the displacement was found to be 2.4%.

On to `O=C(N=Nc1c(O)n(CN2CCOCC2)c2ccccc12)c1ccncc1`, for which the displacement is -14.3%.

As for `COc1ccccc1C(=O)N1CCN(Cc2ccncc2)CC1`, the displacement is -7.2%.

`c1ccc(-c2nnc(NCc3nc4ccccc4[nH]3)c3ccccc23)cc1`: the displacement is -3.9%.

With `O=C(Nc1c(C(=O)NCCc2ccccc2)cnn1-c1ccccc1)c1cccc(F)c1`, the displacement was 0.8%.

In the case of `COc1cc(/C=N\N2CCN(c3ccccc3)CC2)ccc1O`, the displacement was 1.8%.

As to `COc1ccccc1NC(=O)c1c(NC(=O)Cc2ccccc2)sc2c1CCC2`, the displacement was -8.5%.

As for `C=CCOC(=O)C1=C(C)N(CC)C(=O)NC1c1cc(Br)c(O)c(OC)c1` (stereo not drawn), the displacement was found to be 5.6%.

As to `CCOC(=O)c1ccc(N2C(=O)CC(NCCc3ccc(OC)cc3)C2=O)cc1` (stereo not drawn), the displacement was determined as 12.9%.

Consider `CCOC(=O)c1c(NC(=O)C2CC2)sc(C(=O)Nc2ccc(OC)cc2OC)c1C`, for which the displacement was -1.2%.

Consider `Cc1ccc(N=Cc2c(C(F)(F)F)[nH]n(-c3ccccc3)c2=O)cc1`, for which the displacement was -3.8%.

On to `Cc1cc(Cl)cc(C(=O)Nc2ccc([N+](=O)[O-])cc2Cl)c1O`, for which the displacement was 3.3%.

`CCOC(=O)c1ccc(N2NC(=O)/C(=C/c3ccc(Cl)c([N+](=O)[O-])c3)C2=O)cc1`: the displacement was 7.9%.

As to `Cc1cc(-c2ccccc2)nc(N/N=C/c2ccc([N+](=O)[O-])cc2)n1`, the displacement was -5.1%.

For the compound `CCCS(=O)(=O)c1c(S(=O)(=O)CCC)c2ccccn2c1C(=O)c1ccc(C)cc1`, the displacement is -1%.

For the compound `O=C(c1ccc([N+](=O)[O-])cc1)N1CCN(Cc2cccc3ccccc23)CC1`, the displacement is -8%.

With `O=C(CSc1nc2ccc(Br)cc2c(=O)n1-c1ccccc1)NC1CCCC1`, the displacement is 13.4%.

As to `COC(=O)c1ccc(/C=C2\SC(=S)N(Nc3ccccc3)C2=O)cc1`, the displacement is -10%.

Take `CCOc1cc(/C=N/NC(=O)Cc2cccc3ccccc23)cc([N+](=O)[O-])c1O`: the displacement was determined as 11.8%.

On to `O=C1c2cccc3cccc(c23)C(=O)N1/N=C/c1ccccc1O`, for which the displacement is -11.5%.

Consider `O=S(=O)(CCc1nnc(-c2ccccc2)o1)c1ccc(Cl)cc1`, for which the displacement was 6.9%.

Take `O=C(Nc1ccc2ccccc2c1)c1ccc(C(F)(F)F)cc1`: the displacement is 3.8%.

Turning to `COc1ccccc1NC(=O)c1c(NC(=O)C(Cl)(Cl)Cl)sc2c1CCC2`, the displacement is 10.2%.

In the case of `Cc1cc(C(=O)N/N=C/c2ccc(Br)c([N+](=O)[O-])c2)n[nH]1`, the displacement was determined as 5.2%.

Regarding `O=C(NCCNc1ccc(Cl)cc1[N+](=O)[O-])c1ccccc1F`, the displacement is -0.6%.

For `COc1cc(C(=O)N2CCN(c3ccc(F)cc3)CC2)cc(OC)c1OC`, the displacement is -8%.

Take `CCCC(=O)NS(=O)(=O)c1ccc(NS(C)(=O)=O)cc1`: the displacement came out at 9.5%.

Turning to `O=C(CSc1ncn[nH]1)Nc1cccc(C(=O)O)c1`, the displacement is -1.5%.

Turning to `Cc1cc(C)cc(CC2CC(=O)N(c3ccc(C)cc3Br)C2=O)c1` (stereo not drawn), the displacement was -3.3%.
